Among all 39,000 compounds or so, about 220 (0.56%) showed activity. This is one part of the list.
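Note: static incubation at 37 °C against the wild-type strain, values averaged over two biological replicates.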

This test relates to Escherichia coli K-12 BW25113. The experiment in a line: relative growth (OD600 normalised to plate interquartile mean) (fraction); higher = less growth inhibition, active = 0.2 or less. The note with it: 50 µM; LB; incubation time: overnight (16-24 h).
As to `C[C@H](CO)N1C[C@H](C)[C@H](CN(C)Cc2ccc(C(=O)Nc3ccccc3N)cc2)Oc2ccc(NC(=O)Nc3ccc(C(F)(F)F)cc3)cc2CC1=O`, the relative growth is inactive: 1.03.

For `CN(C)CCCNC(=O)C[C@H]1C=C[C@H](NC(=O)Cc2cccnc2)[C@@H](CO)O1`, the relative growth is inactive: 1.01. On to `C[C@@H]1CN([C@@H](C)CO)C(=O)Cc2cc(NC(=O)CCN3CCOCC3)ccc2O[C@H]1CN(C)Cc1ccc(C(=O)O)cc1`, for which the relative growth was inactive: 1.01. As to `Cc1ccccc1S(=O)(=O)N1C[C@@H](O)COC[C@H]2O[C@@H](CC(=O)NCc3ccccc3Cl)CC[C@@H]21`, the relative growth is inactive: 0.987. Consider `CN1C(=O)c2cc(NC(=O)c3cnccn3)ccc2OC[C@@H]2O[C@H](CC(=O)N[C@@H]3CCN(Cc4ccccc4)C3)CC[C@@H]21`, for which the relative growth is inactive: 0.988. On to `Oc1c(Br)cc(Br)c2cccnc12`, for which the relative growth is inactive: 0.379. The same measure for `COCC(=O)N1C[C@@H](C)[C@@H](OC)CN(C)C(=O)c2ccc(NC(=O)c3ccc(F)cc3)cc2OC[C@@H]1C`: inactive: 1.01. With `C[C@@H]1CCCCO[C@@H](CN(C)CC2CCCCC2)[C@@H](C)CN([C@H](C)CO)C(=O)c2cc(NC(=O)Nc3ccc(F)cc3)ccc2O1` the figure was inactive: 1.03. As for `COc1ccc(NC(=O)Nc2ccc3c(c2)C(=O)N([C@@H](C)CO)C[C@H](C)[C@@H](CN(C)C(=O)Nc2ccccc2)OCCCC[C@H](C)O3)cc1`, the relative growth was inactive: 1.02. The same measure for `C[C@@H](O[C@H]1OCCN(Cc2n[nH]nc2CN(C)C)[C@H]1c1ccc(F)cc1)c1cc(C(F)(F)F)cc(C(F)(F)F)c1`: inactive: 0.916; for `CCCC#Cc1cnc2c(c1)C(=O)N([C@@H](C)CO)C[C@@H](C)[C@H](CN(C)C(=O)c1ccc3c(c1)OCO3)O2`: inactive: 1.01. The same measure for `O=C(C[C@H]1CC[C@@H]2[C@H](COC[C@@H](O)CN2Cc2cccc(C(F)(F)F)c2)O1)NCCc1ccncc1`: inactive: 1.01; for `Cc1noc(C)c1NC(=O)N(C)C[C@@H]1Oc2c(NC(=O)Nc3cccc4ccccc34)cccc2C(=O)N([C@@H](C)CO)C[C@H]1C`: inactive: 1.01. Turning to `COc1ccc(NC(=O)Nc2ccc3c(c2)C(=O)N([C@H](C)CO)C[C@H](C)[C@@H](CN(C)C(=O)Nc2ccc(OC)cc2)OCCCC[C@H](C)O3)cc1`, the relative growth was inactive: 1.01. `COc1cccc(S(=O)(=O)N(C)C[C@H]2Oc3ncc(C#CCN(C)C)cc3C(=O)N([C@H](C)CO)C[C@H]2C)c1`: the relative growth was inactive: 0.987. The same measure for `C[C@@H]1CCCCO[C@H](CN(C)C)[C@H](C)CN([C@H](C)CO)C(=O)c2cc(NC(=O)CCCN(C)C)ccc2O1`: inactive: 0.974; for `CN(C)CCCNC(=O)C[C@H]1CC[C@H]2[C@@H](COC[C@@H](O)CN2S(=O)(=O)c2ccc(F)cc2)O1`: inactive: 0.982; for `C[C@@H]1CN([C@@H](C)CO)C(=O)c2cc(NC(=O)Cc3ccccc3)ccc2O[C@@H]1CN(C)Cc1ccc(Oc2ccccc2)cc1`: inactive: 1. The same measure for `C[C@H]1CN([C@@H](C)CO)C(=O)c2cc(NC(=O)CCCN(C)C)ccc2O[C@H]1CN(C)S(=O)(=O)c1ccc(Cl)cc1`: inactive: 1.02; for `C[C@@H]1CCCCO[C@H](CN(C)Cc2ccc(C(=O)O)cc2)[C@@H](C)CN([C@H](C)CO)C(=O)c2cc(NS(=O)(=O)c3ccccc3)ccc2O1`: inactive: 0.959; for `C[C@@H]1CCCCO[C@H](CN(C)C(=O)C2CCCCC2)[C@H](C)CN([C@@H](C)CO)C(=O)c2cc(NS(=O)(=O)c3ccccc3)ccc2O1`: inactive: 0.977. The same measure for `C[C@@H]1CN([C@@H](C)CO)C(=O)c2cc(NC(=O)NC3CCCCC3)ccc2O[C@@H](C)CCCCO[C@H]1CN(C)Cc1ccc(Cl)c(Cl)c1`: inactive: 1.02; for `O=C(O)C[C@H]1Nc2ccccc2NC1=O`: inactive: 0.999; for `CN1CCN(C(=O)C[C@H]2C=C[C@H](NC(=O)c3ccc4c(c3)OCO4)[C@@H](CO)O2)CC1`: inactive: 0.97. For `C[C@H]1CN([C@@H](C)CO)C(=O)c2cc(NC(=O)Nc3ccc(C(F)(F)F)cc3)ccc2O[C@H]1CN(C)Cc1ccc(Cl)c(Cl)c1`, the relative growth was inactive: 1.

In the case of `Cc1cc(C(=O)Nc2cccc3c2O[C@H](CN(C)C(=O)Nc2ccc4c(c2)OCO4)[C@H](C)CN([C@@H](C)CO)C3=O)n(C)n1`, the relative growth was inactive: 0.998. With `C[C@H]1CN([C@@H](C)CO)C(=O)c2c(c3ccccc3n2C)-c2ccccc2CO[C@H]1CN(C)S(=O)(=O)c1cn(C)cn1` the figure was inactive: 0.991; with `Cc1noc(C)c1NC(=O)N(C)C[C@H]1Oc2ccc(NS(C)(=O)=O)cc2CC(=O)N([C@@H](C)CO)C[C@H]1C`, inactive: 0.999.

With `Cc1noc(C)c1NC(=O)N(C)C[C@H]1OCCCC[C@@H](C)Oc2ccc(NC(=O)CCC(F)(F)F)cc2C(=O)N([C@H](C)CO)C[C@@H]1C`, the relative growth was inactive: 0.987. With `COc1ccc(NC(=O)Nc2ccc3c(c2)CC(=O)N([C@H](C)CO)C[C@@H](C)[C@@H](CN(C)S(=O)(=O)c2cn(C)cn2)O3)cc1` the figure was inactive: 1.01; with `COCC(=O)Nc1ccc2c(c1)C(=O)N(C)[C@@H]1CC[C@@H](CC(=O)NCc3ccccc3Cl)O[C@@H]1CO2`, inactive: 1.01. The same measure for `COCC#Cc1cnc2c(c1)C(=O)N([C@@H](C)CO)C[C@H](C)[C@H](CN(C)C(=O)c1cnccn1)O2`: inactive: 0.999; for `CN1CCN(c2cc3c(cc2F)c(=O)c(C(=O)O)cn3-c2ccc(F)cc2)CC1.Cl`: active: 0.0477; for `CCCC#Cc1cnc2c(c1)C(=O)N([C@@H](C)CO)C[C@H](C)[C@@H](CN(C)S(=O)(=O)c1cn(C)cn1)O2`: inactive: 0.993.

Take `NCc1cnco1`: the relative growth is inactive: 0.976. With `COc1ccc(-c2coc3cc(O)ccc3c2=O)cc1` the figure was inactive: 1.05; with `CO[C@H]1CN(C)C(=O)c2ccc(NC(=O)Nc3cccc(Cl)c3)cc2OC[C@@H](C)N(C(=O)Nc2c(C)noc2C)C[C@H]1C`, inactive: 0.977. The same measure for `CN1CC2(CCN(C(=O)[C@H]3CCC(=O)N3)CC2)COc2ccccc2S1(=O)=O`: inactive: 0.991. The same measure for `Nc1ccc(-c2ccco2)cc1`: inactive: 1.02; for `C[C@H](CO)N1C[C@H](C)[C@H](CN(C)C(=O)Nc2ccc3c(c2)OCO3)Oc2c(NC(=O)c3cnccn3)cccc2C1=O`: inactive: 0.99; for `Cn1c(C(=O)N2CCCO[C@@H](Cn3cccn3)C2)cc(=O)n(C)c1=O`: inactive: 0.995. For `C[C@@H]1CCCCO[C@H](CN(C)C(=O)Nc2ccc3c(c2)OCO3)[C@H](C)CN([C@@H](C)CO)C(=O)c2cc(NC(=O)c3ccccc3)ccc2O1`, the relative growth is inactive: 1.01. For `C[C@@H]1CN([C@@H](C)CO)C(=O)c2cc(NC(=O)Cn3cnnn3)ccc2O[C@@H]1CN(C)S(=O)(=O)c1cn(C)cn1`, the relative growth is inactive: 1.02. With `Cc1ccc(S(=O)(=O)Nc2ccc3c(c2)C(=O)N([C@@H](C)CO)C[C@H](C)[C@@H](CN(C)C(=O)Nc2ccc(C(F)(F)F)cc2)OCCCC[C@H](C)O3)cc1` the figure was inactive: 1.02; with `CN1C(=O)c2cc(NC(=O)c3ccc(F)cc3)ccc2OC[C@H]2O[C@H](CC(=O)N3CCOCC3)CC[C@@H]21`, inactive: 1.01. For the compound `Cc1cc(N)no1`, the relative growth was inactive: 0.987. Turning to `Cc1cc2nc(C(=O)NC[C@H]3CCCS(=O)(=O)C3)cc(-c3ccccc3Cl)c2c(C)c1-c1ccncc1`, the relative growth was inactive: 1.04. `C[C@@H]1CCCCO[C@@H](CN(C)Cc2ccc(C(=O)O)cc2)[C@H](C)CN([C@@H](C)CO)C(=O)c2cc(NC(=O)Nc3ccc4c(c3)OCO4)ccc2O1`: the relative growth was inactive: 1.02.

For the compound `C[C@@H]1CCCCO[C@@H](CN(C)C(=O)NC2CCCCC2)[C@H](C)CN([C@@H](C)CO)C(=O)c2cc(NC(=O)Nc3cccc4ccccc34)ccc2O1`, the relative growth was inactive: 1.04. On to `COCC(=O)Nc1ccc2c(c1)OC[C@@H](C)N(C(=O)Cc1cccnc1)C[C@@H](C)[C@H](OC)CN(C)C2=O`, for which the relative growth is inactive: 1.01. For `CO[C@H]1[C@H](O)[C@@H](O)[C@H](O)[C@H](O)[C@@H]1O`, the relative growth is inactive: 1.01. `C[C@@H]1CN([C@H](C)CO)C(=O)c2cc(NC(=O)CCCN(C)C)ccc2O[C@@H](C)CCCCO[C@@H]1CN(C)S(C)(=O)=O`: the relative growth is inactive: 0.815. The same measure for `Clc1cccc(Cl)c1CSCc1cc2ccccc2o1`: inactive: 0.969; for `C[C@H](CO)N1C[C@H](C)[C@@H](CN(C)Cc2ccc(C(=O)O)cc2)OCCCC[C@H](C)Oc2ccc(NC(=O)Nc3ccccc3)cc2C1=O`: inactive: 1.05; for `CO[C@@H]1CN(C)C(=O)c2cc(NC(=O)C3CC3)ccc2OC[C@@H](C)N(C(=O)Cc2ccccn2)C[C@@H]1C`: inactive: 1.01. The same measure for `C=CC[C@@H](CC(=O)N[C@H](CO)Cc1ccccc1)C(=O)N[C@H](C)COC(=O)[C@H](CC=C)CC(=O)OC(C)(C)C`: inactive: 0.992; for `C[C@@H]1CCCCO[C@@H](CN(C)S(=O)(=O)c2ccc(F)cc2)[C@@H](C)CN([C@@H](C)CO)C(=O)c2cc(NS(=O)(=O)c3ccc(Cl)cc3)ccc2O1`: inactive: 0.982. The same measure for `CN[C@@H](C)C(=O)N[C@H]1CN(C(=O)CC(C)C)CC[C@H]2CC[C@@H](C(=O)NC(c3ccccc3)c3ccccc3)N2C1=O`: inactive: 0.987; for `Cc1ccc(S(=O)(=O)N(C)C[C@H]2OCCCC[C@@H](C)Oc3ccc(NC(=O)CCC(F)(F)F)cc3C(=O)N([C@@H](C)CO)C[C@H]2C)cc1`: inactive: 0.997; for `C[C@H](CO)N1C[C@H](C)[C@@H](CN(C)CC2CC2)OCCCC[C@H](C)Oc2ccc(NC(=O)CCC(F)(F)F)cc2C1=O`: inactive: 0.976.

(Values after the supplement of paper PMC9446081.)
